# In PubChem BioAssay AID504706 (National Center for Advancing Translational Sciences (NCATS), 2011):
# The campaign covered roughly 320,000 compounds. About 200 (0.062%) were called active. Inconclusive means that the source gave no clear call. Such entries were picked first, then a sample of the others. The call rests on the fitted dose curve; in most records, active means well fitted activation curve with a large enough effect; inconclusive means small, poorly fitted or top-dose-only effect; inactive means no such curve, though single readings can be large or run the other way. No potency is given beside an inconclusive call; the fits are too rough.
# Assay: qHTS assay for re-activators of p53 using a Luc reporter; further: nearly all actives have a fitted effect of over 45% in size
# Conditions: H1299 p53-A138V BP100-luciferase reporter, luminescence, 24 h; series mostly up to 92.2 µM
# Outline: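 p53-null H1299 cells stably carrying temperature-sensitive p53-A138V and a BP100-luciferase reporter were pinned with compounds (4-point, 1:5 series) and held 24 hrs at 37 deg C. Luminescence was read 10 min after detection reagent.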
# Potency means the concentration at half of the fitted maximal effect; tags describe the fitted curve by direction and shape.
row,Compound,Potency
1,COc1ccc(OC)c(C2C(C(=O)c3ccco3)=C(O)C(=O)N2CC2CCCO2)c1 (stereo not given),inactive
2,CN(CC(=O)Nc1ccccc1Br)C(=O)c1cc2c(s1)CCCCC2,"inconclusive [activator, full curve, poor fit]"
3,Cc1ccc(S(=O)(=O)N2CCCCC2)cc1NC(=O)COC(=O)C1(C)CC1(Cl)Cl (stereo not given),inactive
4,CCn1cc(Cl)c(C(=O)Nc2ccccc2C(N)=O)n1,"inconclusive [activator, single point]"
5,Fc1ccc(CSc2nc3ccccc3[nH]2)cc1,"inconclusive [activator, partial curve, poor fit]"
6,Cc1ccc(C2=NN(S(C)(=O)=O)C(c3ccc4nccnc4c3)C2)cc1 (stereo not given),"inconclusive [activator, partial curve, poor fit]"
7,Cc1ccc(-n2nnc3c(=O)n(CC(=O)N4CCCC4)cnc32)cc1,inactive
8,Cc1sc2c(c1C)CN(C1CC(C)(C)NC(C)(C)C1)CN2C(=O)c1ccco1,"inconclusive [activator, partial curve, poor fit]"
9,N#C/C(=N\Nc1ccccc1)C(=N)N1CCCCC1,"inconclusive [activator, full curve, poor fit]"
10,O=C(O)c1ccccc1Nc1ccc([N+](=O)[O-])cc1,"inconclusive [activator, full curve]"
11,CC(C)c1ccc(-c2nc3ccccc3s2)cc1,inactive
12,COc1cc(C2Nc3ccccc3C(=O)N2c2ccc3c(c2)OCCO3)ccc1OCC(C)C (stereo not given),"inconclusive [activator, full curve, poor fit]"
13,COc1ccc(/C(N)=N/OC(=O)c2cccs2)cc1,"inconclusive [activator, partial curve, poor fit]"
14,COc1ccc(C(=O)NCCSc2ccccc2)cc1,"inconclusive [activator, full curve, poor fit]"
15,COc1ccc(/C(O)=C/c2nc3ccccc3n(-c3ccccc3)c2=O)cc1,inactive
16,O=C(NC(=S)NCC1CCCO1)c1ccccc1 (stereo not given),"inconclusive [activator, full curve, poor fit]"
17,CCC(C)NC(=O)c1cc(-c2ccc(OC)cc2)on1 (stereo not given),"inconclusive [activator, partial curve, poor fit]"
18,O=[N+]([O-])c1ccc(N/N=C/c2sc(N3CCOCC3)nc2-c2ccccc2)c(S(=O)(=O)Nc2ccc(Cl)cc2)c1,inactive
19,CCOC(=O)c1c(C)c(C(=O)Nc2ccc(N(C)C)cc2)c(C)n1CC,"inconclusive [activator, partial curve, poor fit]"
20,CCn1c(-c2ccc(C(C)(C)C)cc2)n[nH]c1=S,"inconclusive [activator, full curve]"
21,COCc1cc(=O)[nH]c(/N=C(\N)Nc2ccc(Oc3ccccc3)cc2)n1,inactive
22,CCN(CC)c1nc(=S)nc(NC(C)(C)C)[nH]1,inactive
23,CCOC(=O)Cc1csc(NC(=O)c2cc3ccccc3o2)n1,inactive

row,Compound,Potency
1,Cc1cccc(C(=O)N2CCc3cc(-c4nc(NC(=O)CN5CCCC5)sc4C)ccc32)c1,inactive
2,O=C(NCc1ccc(Cl)cc1)c1n[nH]c([N+](=O)[O-])c1Cl,inactive
3,CCN1CCN(Cc2ccc(NC(=O)Nc3ccccc3)cc2)CC1,"inconclusive [activator, partial curve, poor fit]"
4,Cc1cc(OCC(=O)Nc2cccnc2)c2c(C)c(C)c(=O)oc2c1,inactive
5,CCC(C)N(C(=O)CN1C(=O)NC2(CCc3ccccc32)C1=O)C1CCS(=O)(=O)C1 (stereo not given),"inconclusive [activator, single point]"
6,COc1cccc(Sc2nc(-c3ccccc3)ncc2S(C)(=O)=O)c1,"inconclusive [activator, partial curve, poor fit]"
7,O=C(/C=C\Nc1ccc(Br)cc1)c1cccnc1,"inconclusive [activator, partial curve, poor fit]"
8,Nc1nnc(SCCOc2ccccc2)s1,"inconclusive [activator, partial curve, poor fit]"
9,COc1cc(Cl)ccc1OCc1cc(C(=O)N2C[C@H]3CC[C@H]2C3)no1,"inconclusive [activator, full curve, poor fit]"
10,O=C(NCc1cccnc1)c1c[nH]c2cc3c(cc2c1=O)OCCO3,"inconclusive [activator, partial curve, poor fit]"
11,O=C(CSc1ncn(-c2ccccc2)n1)c1cccs1,"inconclusive [activator, full curve, poor fit]"
12,CC(C)(C)c1ccc(C(=O)NNC(=S)NC(=O)c2cccnc2)cc1,inactive
13,O=C(c1cc(-c2cccc(O)c2)on1)N1CCCCCC1,"inconclusive [activator, partial curve, poor fit]"
14,O=C(Nc1nc2ccccc2s1)c1ccc(Cl)s1,"inconclusive [activator, full curve, poor fit]"
15,COc1ccc2nc(NC(=O)C3COc4ccccc4O3)sc2c1 (stereo not given),"inconclusive [activator, partial curve, poor fit]"
16,N#Cc1ccc(/C=C(\C(=O)C(=O)O)c2ccc3ccccc3n2)cc1,"inconclusive [activator, full curve, poor fit]"
17,Cc1ccccc1Nc1nc(N)nc(COC(=O)c2ccco2)n1,"inconclusive [activator, partial curve, poor fit]"
18,O=S(=O)(NCC(c1ccco1)N1CCc2ccccc2C1)c1ccc(Br)cc1 (stereo not given),inactive
19,CCN1/C(=N\N)c2cccc3cccc1c23,inactive
20,C[C@H](CO)N1C[C@H](C)[C@@H](CN(C)Cc2ccc(Cl)c(Cl)c2)Oc2c(NC(=O)Cc3ccccc3)cccc2C1=O,inactive
21,O=C(CN1CCN(S(=O)(=O)c2ccc(Cl)c(Cl)c2)CC1)N1CCCC1,inactive
22,O=C(Nc1cc(Cl)ccc1N1CCOCC1)c1ccc(Br)o1,inactive
